Laboratory results: article PMC4336329 (PLoS ONE, 2015)
Out of some 310,000 compounds screened, about 14,000 (4.5%) showed an effect of 50% or more. Effects have a minus sign here. The list shows a part of the results.

The compounds below were run against human ether-à-go-go-related gene (hERG) potassium channel (human, UniProt Q12809) (assay: primary screen, population patch clamp on CHO cells stably expressing hERG).
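Note: peak tail current of the secondary pulse compared with the same well before compound.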

Sequence of human ether-à-go-go-related gene (hERG) potassium channel (Q12809 whole entry, looked up): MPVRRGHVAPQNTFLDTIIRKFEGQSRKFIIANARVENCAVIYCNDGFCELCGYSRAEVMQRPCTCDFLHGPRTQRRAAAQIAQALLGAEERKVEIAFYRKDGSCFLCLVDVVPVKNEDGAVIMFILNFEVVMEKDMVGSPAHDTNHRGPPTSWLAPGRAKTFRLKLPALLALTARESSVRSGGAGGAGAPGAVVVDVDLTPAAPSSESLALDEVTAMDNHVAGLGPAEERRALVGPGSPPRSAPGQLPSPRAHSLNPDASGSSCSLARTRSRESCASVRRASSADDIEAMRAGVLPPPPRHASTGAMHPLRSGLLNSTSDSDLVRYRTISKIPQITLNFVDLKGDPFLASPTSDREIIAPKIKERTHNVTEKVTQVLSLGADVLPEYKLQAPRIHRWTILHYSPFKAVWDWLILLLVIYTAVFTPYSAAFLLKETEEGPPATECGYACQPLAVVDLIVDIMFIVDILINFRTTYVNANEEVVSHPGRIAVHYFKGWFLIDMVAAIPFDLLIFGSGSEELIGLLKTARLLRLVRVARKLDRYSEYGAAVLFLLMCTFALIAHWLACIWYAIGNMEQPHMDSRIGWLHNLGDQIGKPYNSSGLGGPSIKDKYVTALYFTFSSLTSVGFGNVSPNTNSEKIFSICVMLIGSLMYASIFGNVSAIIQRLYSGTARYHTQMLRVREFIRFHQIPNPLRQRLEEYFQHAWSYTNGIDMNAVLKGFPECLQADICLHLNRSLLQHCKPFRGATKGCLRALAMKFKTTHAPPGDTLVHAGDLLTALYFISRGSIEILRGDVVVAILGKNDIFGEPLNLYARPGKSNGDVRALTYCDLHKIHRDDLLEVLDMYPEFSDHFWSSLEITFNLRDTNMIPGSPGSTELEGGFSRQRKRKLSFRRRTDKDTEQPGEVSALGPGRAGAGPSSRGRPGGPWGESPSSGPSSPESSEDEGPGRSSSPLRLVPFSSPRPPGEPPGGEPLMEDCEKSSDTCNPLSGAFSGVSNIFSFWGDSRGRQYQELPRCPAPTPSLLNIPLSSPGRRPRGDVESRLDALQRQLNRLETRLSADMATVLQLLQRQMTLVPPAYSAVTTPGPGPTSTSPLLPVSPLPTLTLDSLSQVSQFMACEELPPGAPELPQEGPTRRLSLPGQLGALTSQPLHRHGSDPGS

Row | Compound | hERG current change (%, negative = inhibition) at 10uM
1 | O=C(N/N=C\c1ccc(OCC(=O)N2CCCC2)cc1)C(=O)Nc1ccccc1F | -40.7%
2 | C/C(=N/NC(=O)CNC(=O)c1ccc2c(c1)OCO2)c1ccc2c(c1)CCCC2 | -9.71%
3 | C[C@H](NC(=O)NCc1ccc(F)cc1)C(=O)O | 8.19%
4 | CC12CCC(C(=O)N(NC(=O)c3ccccc3O)C1=O)C2(C)C (stereo not drawn) | 16.7%
5 | CC12COC3(C(=O)Nc4ccccc4)CC1CCC32C (stereo not drawn) | 10.9%
6 | COCCNCC(O)CON=C1c2ccccc2-c2ccccc21 (stereo not drawn) | -21.3%
7 | COc1ccc(NC(=O)COc2ccccc2)cc1Cl | 4.08%
8 | Cc1c(C(=O)NNc2c(Cl)cccc2Cl)n(C)oc1=O | 11.3%
9 | Cc1nccc2c1[nH]c1ccc(Br)cc12 | -3.51%
10 | N#Cc1nc(COc2ccc(F)cc2)oc1N1CCN(Cc2ccccc2)CC1 | -75.3%
11 | Cc1ccc(-c2nc(C=Nc3cccc(C)c3)c(O)o2)cc1 | 21.6%
12 | CCC1CCc2sc(C(=O)OCC(=O)N(CCOC)c3c(N)n(Cc4ccccc4)c(=O)[nH]c3=O)cc2C1 (stereo not drawn) | -13.4%
13 | CN(C)c1ccc(/C=C/C(=O)c2ccccc2O)cc1 | 17.1%
14 | Cc1ccc(CCNC(=O)C2CCCN(S(=O)(=O)c3c(C)noc3/C=C/N(C)C)C2)cc1 (stereo not drawn) | -11.1%
15 | CC(OC(=O)c1nsc(Cl)c1Cl)C(=O)NCc1cccs1 (stereo not drawn) | 5.44%
16 | O=C(CC1SC(=O)N(Cc2ccccc2Cl)C1=O)Nc1nccs1 (stereo not drawn) | -5.31%
17 | CCn1c(=O)c(C(=O)Nc2ncccc2O)c(O)c2ccccc21 | 29.1%
18 | Cc1nn(C)c(C)c1CCC(=O)N1CCCC(Nc2ccc(C(C)C)cc2)C1 (stereo not drawn) | 5.72%
19 | Cc1ccc(S(=O)(=O)N2CCOCC2)cc1NC(=O)COC(=O)CNC(=O)c1ccc(Cl)cc1Cl | -12.8%
20 | O=C(Nc1cc(Cl)ncn1)c1ccccc1 | 5.53%
21 | Cc1ccc(OCCn2cc(/C=N/NC(=O)c3ccncc3)c3ccccc32)cc1 | -7.64%
22 | CCOc1cc(-c2nnc(-c3ccco3)o2)cc(OCC)c1OCC | 9.51%
23 | Cn1cc([N+](=O)[O-])c(C(=O)Nc2ccc(C3CCCCC3)cc2)n1 | 37.1%

Row | Compound | hERG current change (%, negative = inhibition) at 10uM
24 | C=C(C)c1ccccc1NC(=O)CCN1C(=O)c2ccccc2S1(=O)=O | -1.17%
25 | Cc1ccc(/C=C/C(=O)O)cc1S(=O)(=O)N1CCCCC1 | 8.12%
26 | COc1cc(OC)c(OC)cc1CNCc1ccc2c(c1)OCO2 | 16.1%
27 | Cc1cccc(/C=N/NC(=O)c2cc(-c3cccnc3)nc3ccccc23)c1 | 1.78%
28 | CCN(CC)c1ccc(NC(=O)CN2CCN(CC(=O)Nc3ccccc3OC)CC2)cc1 | -26.9%
29 | COc1cc(C2C(C#N)=C(N)Oc3cc(C)oc(=O)c32)cc2c1OCO2 (stereo not drawn) | -6.59%
30 | COc1cccc2cc(CC(=O)c3ccccc3)c(=O)oc12 | 13.6%
31 | COc1cc2[nH]c(=O)n(Cc3ccc(C(=O)NCC4CCCO4)cc3)c(=O)c2cc1OC (stereo not drawn) | -2.65%
32 | C=CCOC(=O)C(C#N)c1nc2ccccc2nc1N1CCN(Cc2ccc3c(c2)OCO3)CC1 (stereo not drawn) | -35.8%
33 | CC1=C/C(=C\c2ccc(Br)o2)C(=O)O1 | 17.4%
34 | CCCCCOc1ccc(CN2CCOCC2)cc1Cl.Cl | -9.97%
35 | CCN1CCN(S(=O)(=O)c2ccc(C(C)(C)C)cc2)CC1 | 8.06%
36 | O=[N+]([O-])c1cccc(Oc2cnccn2)c1 | 16.4%
37 | O=C(C1CCCO1)N(c1ccc(F)cc1)C1C=CS(=O)(=O)C1 (stereo not drawn) | 22.6%
38 | O=C(CN1C(=O)COc2ccccc21)Nc1ccc(F)cc1 | 8.36%
39 | COCCn1c(SCC(=O)c2ccc(F)cc2)nnc1C(C)C | -1.86%
40 | COc1ccc(C(C)NC(=O)C2CCCC2)cc1OC (stereo not drawn) | 19.9%
41 | CC(=O)c1cccc(NC(=O)CSc2n[nH]c(-c3ccncc3)n2)c1 | 10.5%
42 | O=C(Cn1c(=O)sc2ccccc21)Nc1ccc2c(c1)OCCO2 | 6.78%
43 | CSc1ccc(C(=S)N2CCCCCC2)cc1 | 7.33%
44 | Nc1nc(SCc2nc3sc4c(c3c(=O)[nH]2)CCCC4)n[nH]1 | 8.47%
45 | Nc1ccc(S(=O)(=O)Nc2ccc(S(N)(=O)=O)cc2)cc1 | 2.96%
46 | CC1CCCC/C1=N\Nc1ccc(S(N)(=O)=O)cc1[N+](=O)[O-] (stereo not drawn) | 11.4%

Row | Compound | hERG current change (%, negative = inhibition) at 10uM
47 | Cc1cc(C(=O)N/N=C/c2ccc(N3CCOCC3)cc2)c(C)o1 | 20.3%
48 | Cc1cccc(CS(=O)(=O)Cc2ccc(C(=O)NCc3ccco3)o2)c1 | -7.41%
49 | O=C(Cn1cc(C(F)(F)F)ccc1=O)N/N=C/c1ccccc1O | -7.65%
50 | CC(=NCCCN1CCCCC1)c1c(O)n(Cc2ccccc2)c(=O)[nH]c1=O | -48.4%
51 | O=c1c2ccc([N+](=O)[O-])c3cccc(c32)c2nc3ccccc3n12 | 21.1%
52 | CCCCn1c(=O)c(C(=O)Nc2ccccc2F)c(O)c2ccccc21 | 22.6%
53 | CCOc1ccc(S(=O)(=O)NCCC(=O)N2CCN(Cc3ccccc3)CC2)cc1 | -54.2%
54 | COc1cccc(C(=O)OCc2ccccc2C#N)c1O | 10%
55 | O=C(Nc1cccc(C(F)(F)F)c1)C1C2CC3OC(=O)C1C3C2 (stereo not drawn) | -7.31%
56 | O=C1OC(c2ccccc2)=C/C1=C/N1CCCCC1 | -18.7%
57 | N#Cc1ccccc1OCC(=O)Nc1nnc(C2CC2)s1 | 0.922%
58 | COCCN(C(=O)CCC(=O)Nc1cc(C)on1)C(C(=O)NC1CCCC1)c1ccc(C)cc1 (stereo not drawn) | -6.8%
59 | CCC(C)NC(=O)CSc1nnc(-c2cc(-c3ccc(C)cc3)nc3ccccc23)n1N (stereo not drawn) | 17.1%
60 | Cc1cccc(C(=O)OCC(=O)c2c(C)[nH]c3ccccc23)c1O | 9.38%
61 | C=CCn1c(SCc2ccc(F)cc2)nc2c1c(=O)[nH]c(=O)n2C | -18%
62 | CCN1CCN(CCn2c(=S)[nH]c3cc4c(cc3c2=O)OCO4)CC1 | 13%
63 | O=C1NC(c2ccccc2O)Nc2ccccc21 (stereo not drawn) | 15%
64 | CCOC(=O)C[C@H]1c2cc(C(F)(F)F)ccc2S(=O)(=O)N1C(C)C | -17.5%
65 | COc1ccc(S(=O)(=O)Nc2c(NC3CCCCC3)c3ccccc3oc2=O)cc1OC | -6.99%
66 | O=C(CSc1ccc2nnc(CCNC(=O)c3ccc(F)cc3)n2n1)NCC1CCCO1 (stereo not drawn) | 12%
67 | CCOC(=O)c1sc(N)nc1-c1ccccc1 | -6.84%
68 | O=S(=O)(Nc1cccc2c1ccc1cccn12)c1cccs1 | -8.8%
69 | O=C(COC(=O)c1ccc(O)cc1)NC1CCCCCC1 | 7.22%

Row | Compound | hERG current change (%, negative = inhibition) at 10uM
70 | CC(=O)Nc1ccc(S(=O)(=O)NNC(=O)COc2ccc(Cl)cc2Cl)cc1 | 16.3%
71 | CCOCCN1CCC(OC(C)=O)C(C)C1.Cl (stereo not drawn) | 16.2%
72 | Cc1ccc2nc(SCC(=O)Nc3ccc(Cl)cc3)nc(=O)n2c1 | -15.4%
73 | CSc1ccc(C2CC(=O)Nc3c2c(=O)n(C)c(=O)n3C)cc1 (stereo not drawn) | 9.46%
74 | Cc1c(C(=O)N2CCN(S(C)(=O)=O)CC2)oc2ccccc12 | 3.49%
75 | COc1ccc(/C=N/NC(=O)COc2ccc3ccccc3c2)c(C(=O)O)c1OC | -0.793%
76 | O=C(O)CCN1C(=O)/C(=C\c2cccc(Oc3ccccc3)c2)SC1=S | 26.2%
77 | O=C1NC2(CCCCCC2)C(=O)N1Cc1ccc([N+](=O)[O-])cc1 | -17.5%
78 | CC(C)(C)NC(=O)CN(C(=O)CCC(=O)Nc1nccs1)c1ccc2c(c1)OCCO2 | 14.7%
79 | COc1ccc(-n2c(NC(=O)c3ccco3)c(C#N)c3nc4ccccc4nc32)cc1 | 5.18%
80 | Cc1ccc(/C=N/NC(=O)CN(Cc2ccccc2)S(=O)(=O)c2ccc3c(c2)OCCO3)cc1 | 15.9%
81 | CCNC(=O)c1ccccc1CCc1ccccc1 | 13.6%
82 | CC(=O)c1ccc(NC(=O)c2ccc3c(c2)C(=O)N(c2ccccn2)C3=O)cc1 | 15.2%
83 | c1ccc(N/N=C(\Cc2ncc[nH]2)c2ccccc2)cc1 | -2.34%
84 | NS(=O)(=O)c1cccc(NC(=O)COc2ncnc3c2cnn3-c2ccccc2)c1 | 6.09%
85 | CCCCC(NC(C)=O)c1nc2ccccc2n1CCC (stereo not drawn) | -11.8%
86 | Cc1ccc(S(=O)(=O)n2nc(OC(=O)C(C)(C)C)cc2N)cc1 | 2.38%
87 | O=C(NCCCN1CCCC1=O)c1cc2c(s1)CCCCC2 | -4.09%
88 | COc1ccc(N2CC(C)Cn3c2nc2c3c(=O)n(CCN3CCOCC3)c(=O)n2C)cc1 (stereo not drawn) | -3.02%
89 | CC1CCC(NC(=O)COC(=O)CNC(=O)c2ccc3ccccc3c2)CC1 (stereo not drawn) | 6.67%
90 | C=CCNCC#CCOc1ccc(OC)cc1.O=C(O)C(=O)O | -11%
